Where “and” joins values, the source holds several entries; their conditions need not be identical. Identical values can stand only once. Inconclusive results, whose numbers are uncertain, are shown with a selection of clear calls. Potencies of inconclusive entries are doubtful fits and often do not repeat. A structure can be active in one record and inactive in another. Calls of active or inactive are those of the source. The call rests on the fitted dose curve; in most records, active means well fitted inhibition curve with a large enough effect in the repeat runs; inconclusive means weak or mixed curves; inactive means no such curve, though single readings can be large or run the other way.
target: Cytochrome P450 3A4 (Homo sapiens) (UniProt P08684); experiment: Cytochrome P450 Family 3 Subfamily A Member 4 (CYP3A4) small molecule antagonists: luciferase reporter qHTS assay (AID 1671201); details: P450-Glo CYP3A4 enzyme, luciferin luminescence, 1 h; series mostly up to 115 µM; activity change, negative = inhibition: at the top concentration; further: nearly all actives have a fitted effect of over 50% in size
From the text: National Center for Advancing Translational Sciences [NCATS]
U.S. Environmental Protection Agency [EPA]
National Institutes of Environmental Health Sciences [NIEHS]
National Toxicology Program [NTP]
U.S. Food and Drug Administration [FDA]
Cytochrome P450 (CYP) enzymes are membrane-bound hemeproteins that play a key role in metabolism of drugs and xenobiotics. Evaluation of the effect of chemicals on CYP isozymes is useful to minimize the adverse drug reactions and toxicities in drug development process. Tox21 chemicals were tested for their effect on CYP enzyme activities by using P450-Glo (TM) screening systems (Promega Corporation, Madison, WI). These systems provide a luminescent method containing proluciferin substrates and are converted to luciferin products by CYP isozymes. The luciferin products formed are detected with a luciferin detection reagent, and the amount of light produced is proportional to CYP activity. P450-Glo (TM) CYP3A4 screening system (Catalog. No. V9910) was used to detect the compounds that interfere in CYP3A4 activity. The positive control compound used for CYP3A4 assay is ketoconazole (Sigma-Aldrich, St. Louis, MO).
Tox21 Assay Protocol Summary:
Two ul of enzyme-substrate mix was dispensed into medium binding white/solid 1536-well plates (Greiner Bio-One North America Inc., Monroe, NC) using a BioRaptr Flying Reagent Dispenser (FRD, Beckman Coulter, Brea, CA). Compounds dissolved in DMSO and positive control (ketoconazole) were transferred to the assay plates at 23 nl using a Pintool station (Wako, San Diego, CA). The assay plates were incubated at room temperature for 10 min. Then 2 ul of NADPH regeneration solution was added to each well of the assay plates using an FRD and incubated at room temperature for 1 h. The reaction was stopped by adding 4 ul of detection reagent using an FRD and after 20 min incubation at room temperature the luminescence signal was measured using a ViewLux plate reader (Perkin Elmer, Shelton, CT). Data were expressed as relative luminescence units.
On the % scale 0 is the no-effect control and ±100 the full control effect; potency means the concentration at half of the fitted maximal effect; tags describe the fitted curve by direction and shape.

Chain of UniProt P08684 (P08684 whole entry, looked up): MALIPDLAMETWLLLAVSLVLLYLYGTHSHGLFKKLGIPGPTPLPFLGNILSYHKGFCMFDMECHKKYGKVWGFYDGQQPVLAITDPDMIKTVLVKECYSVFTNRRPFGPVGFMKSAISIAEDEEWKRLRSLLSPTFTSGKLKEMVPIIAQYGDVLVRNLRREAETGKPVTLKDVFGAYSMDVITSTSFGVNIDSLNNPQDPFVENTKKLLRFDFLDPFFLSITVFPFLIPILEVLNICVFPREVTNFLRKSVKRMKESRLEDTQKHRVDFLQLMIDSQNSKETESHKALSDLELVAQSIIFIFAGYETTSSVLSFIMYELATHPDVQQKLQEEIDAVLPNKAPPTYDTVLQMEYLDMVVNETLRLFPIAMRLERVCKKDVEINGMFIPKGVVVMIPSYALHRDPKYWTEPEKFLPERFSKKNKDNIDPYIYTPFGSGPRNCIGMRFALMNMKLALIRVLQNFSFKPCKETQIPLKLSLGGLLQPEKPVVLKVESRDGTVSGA

Row | Compound | Potency | activity change, negative = inhibition
1 | O=C(O)c1ccccc1C(=O)Nc1cccc2ccccc12 | inconclusive: 79.6 µM [inhibitor] | –
2 | Nc1n[nH]c(N)n1 | inconclusive: 81.1 µM [inhibitor, partial curve, poor fit] | –
3 | CC(C)(C1CCC(O)CC1)C1CCC(O)CC1 (stereo not given) | – | inactive: 3.15%
4 | C/C=C/c1ccc2c(c1)OCO2 | inconclusive: 35.6 µM [inhibitor, partial curve] | –
5 | Nc1c(Cl)cc([N+](=O)[O-])cc1Cl | inactive | –
6 | COc1ccc(O)c(C(C)(C)C)c1 | inconclusive: 40 µM [inhibitor, partial curve] and inconclusive: 56.4 µM [inhibitor, partial curve] | –
7 | CC(CC(C#N)(c1ccccc1)c1ccccc1)N(C)C (stereo not given) | inconclusive: 3.15 µM [inhibitor, full curve] | –
8 | CON(C)C(=O)Nc1ccc(Br)c(Cl)c1 | inconclusive: 63.3 µM [inhibitor, partial curve] | –
9 | OC(c1ccc(F)cc1)(c1cncnc1)c1ccccc1Cl (stereo not given) | active: 0.356 µM | –
10 | COP(=S)(OC)Oc1cc(Cl)c(Br)cc1Cl | inconclusive: 12.6 µM [inhibitor, full curve] | –
11 | CC/C(=N\OC/C=C/Cl)C1=C(O)CC(C2CCOCC2)CC1=O (stereo not given) | active: 31.7 µM | –
12 | COc1ccc(N)cc1N | active: 11.6 µM and inconclusive: 21.5 µM [inhibitor, partial curve] | –
13 | Oc1ccc(Cl)c(Cl)c1Cl | inconclusive: 32.9 µM [inhibitor, partial curve] | –
14 | Cc1cccc(N)c1 | inconclusive: 35.6 µM [inhibitor, partial curve] | –
15 | COc1ccc(C=O)cc1OC | inconclusive: 16.1 µM [inhibitor, full curve] | –
16 | CC(C)(O)C(=O)Nc1ccc([N+](=O)[O-])c(C(F)(F)F)c1 | inconclusive: 41.2 µM [inhibitor, partial curve] | –
17 | Cc1ccc(N)cc1 | inconclusive: 35.8 µM [inhibitor, full curve] and inactive and inconclusive: 31.7 µM [inhibitor, full curve, poor fit] | –
18 | CCC(CC)Nc1c([N+](=O)[O-])cc(C)c(C)c1[N+](=O)[O-] | inconclusive: 25.5 µM [inhibitor, full curve, poor fit] and inconclusive: 56.4 µM [inhibitor, partial curve] | –
19 | COP(=O)(OC)Oc1ccc([N+](=O)[O-])cc1 | – | inactive: -4.65%
20 | O=C(N[C@H](c1ccccc1)[C@@H]1CN2CCC1CC2)c1c(Cl)ccc(C(F)(F)F)c1Cl | inconclusive: 8.09 µM [inhibitor, full curve] | –

Row | Compound | Potency | activity change, negative = inhibition
21 | CC(Cc1ccccc1)NCCCCl (stereo not given) | inconclusive: 27.5 µM [inhibitor, partial curve] | –
22 | O=[N+]([O-])c1cccc2cccc([N+](=O)[O-])c12 | inconclusive: 40.1 µM [inhibitor, full curve] | –
23 | CNC(=O)Oc1cccc2ccccc12 | inconclusive: 35.3 µM [inhibitor, partial curve] | –
24 | COP(=S)(OC)Oc1cc(Cl)c(I)cc1Cl | active: 20 µM | –
25 | C=CCN(CC=C)C(=O)C(Cl)Cl | inactive | –
26 | CCCCN(CCCCO)N=O | inconclusive: 63.3 µM [inhibitor, partial curve] | –
27 | CCOP(=S)(NC(C)C)Oc1ccccc1C(=O)OC(C)C (stereo not given) | active: 0.71 µM | –
28 | CCn1cc[n+](C)c1 | inconclusive: 90.2 µM [inhibitor, single point] | –
29 | c1cncc([C@@H]2CCCCN2)c1 | inconclusive: 35.6 µM [inhibitor, partial curve] | –
30 | Clc1cc(Cl)c(Cl)c(Cl)c1 | – | inactive: 5.27%
31 | OCCSSCCO | – | inactive: 3.9%
32 | Nc1ccc(-c2ccc(N)c(Cl)c2)cc1Cl | active: 5.05 µM and active: 6.63 µM and active: 7.96 µM | –
33 | CN(C1CCCCC1)C1CCCCC1 | – | inactive: -15.5%
34 | SCc1ccco1 | inconclusive: 79.6 µM [inhibitor, single point] | –
35 | CCOc1nc(F)cc2nc(S(=O)(=O)Nc3c(Cl)cccc3Cl)nn12 | inconclusive: 63.3 µM [inhibitor, partial curve] | –
36 | Nc1ccc(Cl)cc1C(=O)c1ccccc1 | inconclusive: 89.4 µM [inhibitor, single point] | –
37 | Nc1ccc(Br)cc1 | inconclusive: 35.5 µM [inhibitor, partial curve, poor fit] and inconclusive: 35.6 µM [inhibitor] | –
38 | II | inconclusive: 20 µM [inhibitor, partial curve] | –
39 | CCCCCOC(=O)c1ccccc1C(=O)OCCCCC | inconclusive: 22.4 µM [inhibitor, full curve] and inconclusive: 35.6 µM [inhibitor, partial curve] | –
40 | c1ccc(N=NNc2ccccc2)cc1 | inconclusive: 35.6 µM [inhibitor, partial curve] | –
